# Data from ChEMBL document CHEMBL5634115, “Exploring novel anticancer pyrazole benzenesulfonamides featuring tail approach strategy as carbonic anhydrase inhibitors” (Eur J Med Chem, 2023).
# Assays:
# HT-29 [1] = assay: cells; format: functional; conditions: Homo sapiens, time 48 hrs
# SNB-19 = assay: cells; format: functional; conditions: Homo sapiens, time 48 hrs
# Carbonic anhydrase 12 = Carbonic anhydrase 12 (Homo sapiens, UniProt O43570)
# K562 = assay: cells; conditions: Homo sapiens, K562, 48 h, read-out: LC50
# HOP-92 = assay: cells; format: functional; conditions: Homo sapiens, time 48 hrs
# SF-268 = assay: cells; format: functional; conditions: Homo sapiens, time 48 hrs
# CAKI-1 [2] = assay: cells; format: functional; conditions: Homo sapiens, time 48 hrs
# SK-MEL-28 [3] = assay: cells; format: functional; conditions: Homo sapiens, time 48 hrs
# RXF 393 = assay: cells; format: functional; conditions: Homo sapiens, time 48 hrs
# SF-539 [4] = assay: cells; conditions: Homo sapiens, SF-539, 48 h, read-out: LC50
# CAKI-1 [5] = assay: cells; conditions: Homo sapiens, CAKI-1, 48 h, read-out: LC50
# TK-10 = assay: cells; conditions: Homo sapiens, TK-10, 48 h, read-out: LC50
# SF-539 [6] = assay: cells; format: functional; conditions: Homo sapiens, time 48 hrs
# UACC-257 [7] = assay: cells; conditions: Homo sapiens, UACC-257, 48 h, read-out: LC50
# OVCAR-8 [8] = assay: cells; format: functional; conditions: Homo sapiens, time 48 hrs
# LOX IMVI [9] = assay: cells; conditions: Homo sapiens, 48 h, read-out: LC50
# OVCAR-5 = assay: cells; format: functional; conditions: Homo sapiens, time 48 hrs
# SW-620 = assay: cells; format: functional; conditions: Homo sapiens, time 48 hrs
# ACHN [10] = assay: cells; format: functional; conditions: Homo sapiens, time 48 hrs
# SK-OV-3 = assay: cells; format: functional; conditions: Homo sapiens, time 48 hrs
# HCC 2998 = assay: cells; format: functional; conditions: Homo sapiens, time 48 hrs
# Hs-578T = assay: cells; format: functional; conditions: Homo sapiens, time 48 hrs
# NCI/ADR-RES = assay: cells; format: functional; conditions: Homo sapiens, time 48 hrs
# OVCAR-8 [11] = assay: cells; format: functional; conditions: Homo sapiens, time 48 hrs; remark: listed apart in the source
# KM12 = assay: cells; conditions: Homo sapiens, KM12, 48 h, read-out: LC50
# Malme-3M = assay: cells; conditions: Homo sapiens, 48 h, read-out: LC50
# CAKI-1 [12] = assay: cells; format: functional; conditions: Homo sapiens, time 48 hrs; remark: listed apart in the source
# COLO 205 = assay: cells; format: functional; conditions: Homo sapiens, time 48 hrs
# SF-295 [13] = assay: cells; format: functional; conditions: Homo sapiens, time 48 hrs
# SF-295 [14] = assay: cells; conditions: Homo sapiens, SF-295, 48 h, read-out: LC50
# NCI-H460 = assay: cells; conditions: Homo sapiens, NCI-H460, 48 h, read-out: LC50
# LOX IMVI [15] = assay: cells; format: functional; conditions: Homo sapiens, time 48 hrs
# SK-MEL-28 [16] = assay: cells; format: functional; conditions: Homo sapiens, time 48 hrs; remark: listed apart in the source
# UO-31 = assay: cells; format: functional; conditions: Homo sapiens, time 48 hrs
# EKVX [17] = assay: cells; conditions: Homo sapiens, 48 h, read-out: LC50
# SR = assay: cells; format: functional; conditions: Homo sapiens, time 48 hrs
# SN12C [18] = assay: cells; conditions: Homo sapiens, 48 h, read-out: LC50
# M14 = assay: cells; format: functional; conditions: Homo sapiens, time 48 hrs
# ACHN [19] = assay: cells; conditions: Homo sapiens, 48 h, read-out: LC50
# [20] = system: Panel NCI-60 (60 carcinoma cell lines); assay: cells; conditions: Homo sapiens, 48 h, read-out: GI
# HT-29 [21] = assay: cells; format: functional; conditions: Homo sapiens, time 48 hrs; remark: listed apart in the source
# RPMI-8226 [22] = assay: cells; format: functional; conditions: Homo sapiens, time 48 hrs
# SK-MEL-5 [23] = assay: cells; format: functional; conditions: Homo sapiens, time 48 hrs
# HCT-116 = assay: cells; conditions: Homo sapiens, HCT-116, 48 h, read-out: LC50
# EKVX [24] = assay: cells; format: functional; conditions: Homo sapiens, time 48 hrs
# HCT-15 = assay: cells; conditions: Homo sapiens, HCT-15, 48 h, read-out: LC50
# 786-0 = assay: cells; conditions: Homo sapiens, 786-0, 48 h, read-out: LC50
# MOLT-4 = assay: cells; conditions: Homo sapiens, MOLT-4, 48 h, read-out: LC50
# LOX IMVI [25] = assay: cells; format: functional; conditions: Homo sapiens, time 48 hrs; remark: listed apart in the source
# SN12C [26] = assay: cells; format: functional; conditions: Homo sapiens, time 48 hrs
# UACC-257 [27] = assay: cells; format: functional; conditions: Homo sapiens, time 48 hrs
# NCI-H522 [28] = assay: cells; format: functional; conditions: Homo sapiens, time 48 hrs
# SK-MEL-5 [29] = assay: cells; conditions: Homo sapiens, SK-MEL-5, 48 h, read-out: LC50
# RPMI-8226 [30] = assay: cells; conditions: Homo sapiens, RPMI-8226, 48 h, read-out: LC50
# NCI-H522 [31] = assay: cells; conditions: Homo sapiens, NCI-H522, 48 h, read-out: LC50
# Carbonic anhydrase 12, sequence (O43570 whole entry): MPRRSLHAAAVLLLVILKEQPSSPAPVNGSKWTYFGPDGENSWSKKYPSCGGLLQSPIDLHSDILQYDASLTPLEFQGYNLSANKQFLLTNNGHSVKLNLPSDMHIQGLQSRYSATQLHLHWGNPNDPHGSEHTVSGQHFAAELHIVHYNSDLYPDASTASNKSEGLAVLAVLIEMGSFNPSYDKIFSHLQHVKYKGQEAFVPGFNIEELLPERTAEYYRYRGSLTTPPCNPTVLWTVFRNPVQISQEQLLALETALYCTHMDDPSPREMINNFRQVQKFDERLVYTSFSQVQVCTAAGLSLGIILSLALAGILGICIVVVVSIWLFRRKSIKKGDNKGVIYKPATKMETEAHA
smiles,measurement,setting,value
NS(=O)(=O)c1ccc(-n2cc(/C=N/Nc3ccc(C(=O)O)cc3)c(-c3ccccc3)n2)cc1,TGI,HT-29 [1],15.7 µM
same,GI50,SNB-19,4.23 µM
same,IC50,Carbonic anhydrase 12,0.247 µM
same,CC50,K562,> 100 µM
same,TGI,HOP-92,31.3 µM
same,GI50,SF-268,3.07 µM
same,TGI,CAKI-1 [2],11.9 µM
same,TGI,SK-MEL-28 [3],17.3 µM
same,GI50,RXF 393,2.09 µM
same,CC50,SF-539 [4],8.75 µM
same,CC50,CAKI-1 [5],> 100 µM
same,CC50,TK-10,> 100 µM
same,GI50,SF-539 [6],1.83 µM
same,CC50,UACC-257 [7],69.7 µM
same,TGI,OVCAR-8 [8],56.1 µM
same,CC50,LOX IMVI [9],5.57 µM
same,GI50,OVCAR-5,4.12 µM
same,GI50,SW-620,3.2 µM
same,TGI,ACHN [10],21.9 µM
same,TGI,SK-OV-3,99.7 µM
same,GI50,HCC 2998,2.09 µM
same,TGI,Hs-578T,8.8 µM
same,TGI,NCI/ADR-RES,6.34 µM
same,GI50,OVCAR-8 [11],4.61 µM
same,CC50,KM12,7.64 µM
same,CC50,Malme-3M,45.1 µM
same,GI50,CAKI-1 [12],2.48 µM
same,TGI,COLO 205,43.1 µM
same,TGI,SF-295 [13],15.6 µM
same,CC50,SF-295 [14],74.6 µM
same,CC50,NCI-H460,35 µM
same,TGI,LOX IMVI [15],3.04 µM
same,GI50,SK-MEL-28 [16],4.53 µM
same,TGI,UO-31,22 µM
same,CC50,EKVX [17],> 100 µM
same,GI50,SR,2.54 µM
same,CC50,SN12C [18],> 100 µM
same,TGI,M14,4.96 µM
same,CC50,ACHN [19],> 100 µM
same,inhibition of growth at 10 µM,[20],26%
same,GI50,HT-29 [21],4.25 µM
same,TGI,RPMI-8226 [22],16.1 µM
same,GI50,SK-MEL-5 [23],1.96 µM
same,CC50,HCT-116,55.4 µM
same,TGI,EKVX [24],58.3 µM
same,CC50,HCT-15,8.18 µM
same,CC50,786-0,> 100 µM
same,CC50,MOLT-4,> 100 µM
same,GI50,LOX IMVI [25],1.66 µM
same,GI50,SN12C [26],16.1 µM
same,TGI,UACC-257 [27],31.4 µM
same,TGI,NCI-H522 [28],4.39 µM
same,CC50,SK-MEL-5 [29],8.49 µM
same,CC50,RPMI-8226 [30],> 100 µM
CCOC(=O)c1ccc(N/N=C/c2cn(-c3ccc(S(N)(=O)=O)cc3)nc2-c2ccc(OC)cc2)cc1,TGI,HT-29 [1],13.6 µM
same,GI50,SNB-19,4.21 µM
same,IC50,Carbonic anhydrase 12,1.96 µM
same,CC50,K562,> 100 µM
same,TGI,HOP-92,14.4 µM
same,GI50,SF-268,4.03 µM
same,TGI,CAKI-1 [2],> 100 µM
same,TGI,SK-MEL-28 [3],74.4 µM
same,GI50,RXF 393,1.96 µM
same,CC50,SF-539 [4],7.89 µM
same,CC50,CAKI-1 [5],> 100 µM
same,CC50,TK-10,> 100 µM
same,GI50,SF-539 [6],1.84 µM
same,CC50,UACC-257 [7],> 100 µM
same,TGI,OVCAR-8 [8],> 100 µM
same,GI50,OVCAR-5,3.34 µM
same,GI50,SW-620,3.86 µM
same,TGI,ACHN [10],> 100 µM
same,TGI,SK-OV-3,> 100 µM
same,GI50,HCC 2998,2.07 µM
same,TGI,Hs-578T,8.08 µM
same,TGI,NCI/ADR-RES,7.2 µM
same,GI50,OVCAR-8 [11],3.79 µM
same,CC50,Malme-3M,74.4 µM
same,CC50,NCI-H522 [31],> 100 µM
same,GI50,CAKI-1 [12],2.8 µM
same,TGI,COLO 205,45 µM
same,TGI,SF-295 [13],18.7 µM
same,CC50,SF-295 [14],62.9 µM
same,CC50,NCI-H460,> 100 µM
same,TGI,LOX IMVI [15],3.5 µM
same,GI50,SK-MEL-28 [16],4.78 µM
same,TGI,UO-31,13 µM
same,CC50,EKVX [17],> 100 µM
same,GI50,SR,2.5 µM
same,CC50,SN12C [18],> 100 µM
same,TGI,M14,4.82 µM
same,CC50,ACHN [19],> 100 µM
same,GI50,HT-29 [21],3.51 µM
same,TGI,RPMI-8226 [22],> 100 µM
same,GI50,SK-MEL-5 [23],1.8 µM
same,CC50,HCT-116,> 100 µM
same,TGI,EKVX [24],> 100 µM
same,CC50,HCT-15,> 100 µM
same,CC50,786-0,47.3 µM
same,CC50,MOLT-4,> 100 µM
same,GI50,LOX IMVI [25],1.74 µM
same,GI50,SN12C [26],8.02 µM
same,TGI,NCI-H522 [28],5.44 µM
same,CC50,SK-MEL-5 [29],6.76 µM
same,CC50,RPMI-8226 [30],> 100 µM
CCOC(=O)c1ccc(N/N=C/c2cn(-c3ccc(S(N)(=O)=O)cc3)nc2-c2ccccc2)cc1,TGI,HT-29 [1],5.13 µM
same,GI50,SNB-19,3.35 µM
same,IC50,Carbonic anhydrase 12,0.885 µM
same,CC50,K562,> 100 µM
same,TGI,HOP-92,7.02 µM
same,GI50,SF-268,2.63 µM
same,TGI,CAKI-1 [2],8.34 µM
same,TGI,SK-MEL-28 [3],8.37 µM
same,GI50,RXF 393,1.77 µM
same,CC50,SF-539 [4],7.03 µM
same,CC50,CAKI-1 [5],> 100 µM
same,CC50,TK-10,> 100 µM
same,GI50,SF-539 [6],1.73 µM
same,CC50,UACC-257 [7],60.8 µM
same,TGI,OVCAR-8 [8],15.7 µM
same,CC50,LOX IMVI [9],5.45 µM
same,GI50,OVCAR-5,1.88 µM
same,GI50,SW-620,2.52 µM
same,TGI,ACHN [10],20.1 µM
same,TGI,SK-OV-3,54.9 µM
same,GI50,HCC 2998,1.83 µM
same,TGI,Hs-578T,6.06 µM
same,TGI,NCI/ADR-RES,5.15 µM
same,GI50,OVCAR-8 [11],3.23 µM
same,CC50,KM12,7.78 µM
same,CC50,Malme-3M,14.7 µM
same,CC50,NCI-H522 [31],> 100 µM
same,GI50,CAKI-1 [12],1.92 µM
same,TGI,COLO 205,10.7 µM
same,TGI,SF-295 [13],5.03 µM
same,CC50,SF-295 [14],23.8 µM
same,CC50,NCI-H460,54.8 µM
same,TGI,LOX IMVI [15],2.95 µM
same,GI50,SK-MEL-28 [16],2.57 µM
same,TGI,UO-31,11.2 µM
same,CC50,EKVX [17],> 100 µM
same,GI50,SR,2 µM
same,CC50,SN12C [18],> 100 µM
same,TGI,M14,4.79 µM
same,CC50,ACHN [19],> 100 µM
same,inhibition of growth at 10 µM,[20],> 100%
same,GI50,HT-29 [21],2.18 µM
same,TGI,RPMI-8226 [22],7.86 µM
same,GI50,SK-MEL-5 [23],1.64 µM
same,CC50,HCT-116,51.5 µM
same,TGI,EKVX [24],27.1 µM
same,CC50,HCT-15,6.86 µM
same,CC50,MOLT-4,> 100 µM
same,GI50,LOX IMVI [25],1.6 µM
same,GI50,SN12C [26],4.68 µM
same,TGI,UACC-257 [27],2.07 µM
same,TGI,NCI-H522 [28],4.54 µM
same,CC50,SK-MEL-5 [29],5.5 µM
same,CC50,RPMI-8226 [30],> 100 µM
